According to the supplement of paper PMC10369915:
The list shows a part of the results. Rule as the data show it: active = 3.2 or more and inactive = the rest. Most of these values are background signal.

B1: LMTK1_HUMAN_279_YA (peptide)
chain: AGLAHCKYREDAFVT
B2: LMTK2_HUMAN_295 (peptide)
chain: FSRYKEDYIETDDKK
B3: LIRB1_HUMAN_533 (peptide)
chain: DAQEENLYAAVKHTQ
B4: LEPR_HUMAN_1079_YA (peptide)
chain: NDKKSIAYLGVTSIK
B5: LYN_HUMAN_508_YA (peptide)
chain: ATATEGQYQQQPGGG
B6: LTK_HUMAN_672 (peptide)
chain: FGMARDIYRASYYRR
B7: LDHB_HUMAN_240 (peptide)
chain: KMVVESAYEVIKLKG
B8: LAX1_HUMAN_373 (peptide)
chain: SNEDSSDYENVLTAK
B9: LAT2_HUMAN_118 (peptide)
chain: IDPIAMEYYNWGRFS
B10: LPP_HUMAN_301 (peptide)
chain: GRYYEGYYAAGPGYG
B11: LY96_HUMAN_131 (peptide)
chain: IKFSKGKYKCVVEAI
B12: KSYK_HUMAN_546_YA (peptide)
chain: AAPECINYAKFSSKS
B13: MBP_HUMAN_148 (peptide)
chain: SQRHGSKYLATASTM
B14: KSYK_HUMAN_296 (peptide)
chain: IISRIKSYSFPKPGH
B15: LHX3_HUMAN_227 (peptide)
chain: GRQRWGQYFRNMKRS
B16: KPYM_HUMAN_175 (peptide)
chain: VEVGSKIYVDDGLIS
B17: LSR_HUMAN_535 (peptide)
chain: SRSRDDLYDQDDSRD
B18: LAT2_HUMAN_95 (peptide)
chain: EDPASSRYQNFSKGS

target: SHP2 C-SH2 domain E139D; experiment: enrichment score (SH2-bound / input frequency) (ratio); bacterial display of known human phosphotyrosine sites (pTyr-Var adds point mutants) read by sequencing; higher = stronger binding; tyrosines were phosphorylated by kinases first; conditions: peptide library: Human pTyr
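Also: displayed peptides selected on beads carrying the immobilized SH2 domain, with library peptides lacking any tyrosine serving as negative controls.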

Enrichment score, inactive:
B1 1.4, B2 1.24, B3 1.01, B4 1.13, B5 0.786, B6 0.557, B7 0.98, B8 0.866, B9 1.1, B10 1.36, B11 1.33, B12 1.25, B13 1.94, B14 1.15, B15 0.738, B16 0.93, B17 0.83, B18 0.812

target: SHP2 C-SH2 domain wild-type; experiment: as above; conditions: peptide library: Human pTyr

Enrichment score, inactive:
B1 1.06, B2 1.34, B3 1.09, B4 0.978, B5 0.617, B6 0.716, B7 0.72, B8 0.8, B9 1.19, B10 1.31, B11 1.13, B12 1.43, B13 2.1, B14 0.819, B15 0.687, B16 0.628, B17 1.03, B18 0.715

target: SHP2 N-SH2 domain L43F; experiment: as above; conditions: peptide library: Human pTyr

Enrichment score, inactive:
B1 1.09, B2 1.03, B3 0.562, B4 1, B5 0.81, B6 0.653, B7 0.707, B8 0.808, B9 0.892, B10 1.11, B11 1.89, B12 1.21, B13 2.2, B14 0.9, B15 0.959, B16 0.634, B17 0.769, B18 0.672

target: SHP2 N-SH2 domain T42A; experiment: as above; conditions: peptide library: Human pTyr

Enrichment score, inactive:
B1 0.985, B2 0.835, B3 0.716, B4 1.01, B5 0.63, B6 0.605, B7 0.713, B8 0.901, B9 0.995, B10 1.12, B11 1.29, B12 0.908, B13 2.09, B14 0.806, B15 0.768, B16 0.597, B17 0.901, B18 0.786

target: SHP2 N-SH2 domain T52S; experiment: as above; conditions: peptide library: Human pTyr

Enrichment score, inactive:
B1 1.27, B2 1.11, B3 0.769, B4 1.1, B5 0.67, B6 0.495, B7 0.922, B8 0.874, B9 1.08, B10 1.38, B11 1.84, B12 1.23, B13 2.05, B14 0.879, B15 0.761, B16 0.727, B17 1.03, B18 0.628

target: SHP2 N-SH2 domain wild-type; experiment: as above; conditions: peptide library: Human pTyr

Enrichment score, inactive:
B1 1.71, B2 0.844, B3 0.551, B4 0.997, B5 0.681, B6 0.445, B7 0.84, B8 0.872, B9 1.11, B10 1.43, B11 1.6, B12 1.15, B13 2.37, B14 1.14, B15 1.65, B16 0.539, B17 1.12, B18 1
